The campaign covered roughly 44,000 compounds. About 340 (0.77%) were called active. Roughly 5% stayed inconclusive and do not appear here. Calls follow the shape of the dose curve; as a rule, active = well fitted inhibition curve with a large enough effect; inconclusive = small, poorly fitted or top-dose-only effect; inactive = flat fitted curve, though single readings scatter. The list shows a part of the results.
Assay: Acumen qHTS Assay for Inhibitors of the mTORC1 Signaling Pathway in MEF (Tsc2-/-, p53-/-) Cells: Sytravon;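 also: plate controls were DMSO for no effect and rapamycin for full effect; nearly all actives have a fitted effect of over 50% in size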
Details: phospho-rpS6 immunofluorescence/PI, 24 h; series mostly up to 38.3 µM; activity change, negative = inhibition: at the top concentration
In short: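 Readout is phospho-S6 Alexa 488 signal normalized to PI per well, reported as % active cells with thresholds set from rapamycin (7.5 nM) and DMSO controls. Cells: Tsc2-/-, p53-/- MEFs, 24 hrs compound at 37 C; PI cell number serves as viability.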

Activity change, negative = inhibition, inactive:
COc1ccc(-c2nc(CN3CCC(C(=O)NCCN(CC(C)C)CC(C)C)CC3)c(C)o2)cc1OC -7.59%
CC(C)(C)C(=O)OCc1cc(=O)n2nc(C3CCCCC3)sc2n1 8.45%
COC(=O)c1ccccc1NC(=O)CN1C(=O)COc2ccccc21 0.566%
Cc1ncc(CO)c2c1Oc1nc(-c3ccccc3F)nc(SCC(=O)N3CCCCC3)c1C2 -3.27%
COc1ccc(NC(=O)CSc2nc3c(c(=O)[nH]2)CN(Cc2ccccc2)CC3)cc1Cl 3.71%
CCc1ccc(NC(=O)Cn2c(=O)n(Cc3ccccc3)c(=O)c3oc4ccccc4c32)cc1 2.26%
COc1cccc2cc(-c3nc(Cl)c4c5c(sc4n3)CC(C)CC5)c(=O)oc12 (stereo unspecified) 2.78%
Cc1ccc(S(=O)(=O)c2cn(C)c3cc(N4CCCC4)c(F)cc3c2=O)c(C)c1 -4.76%
CCc1ccc(NC(=O)c2cnn(-c3c(C)cccc3C)c2C2CCNCC2)cc1 0%
CCOc1cc(C(=O)Nc2c(NC)c3ccccc3oc2=O)cc(OCC)c1OCC 0.595%
O=C1CN(C(=O)c2ccccc2)C(c2ccc(F)cc2)c2cc(Br)ccc2N1 (stereo unspecified) -18.2%
CCc1cccc(C)c1NC(=O)Nc1csc2c1CCCC2 -0.391%
Cc1ccc(C)c(NC(=O)CSc2nncn3c2cc2sccc23)c1 -0.142%
COc1ccc2sc(N(Cc3cccnc3)C(=O)c3ccco3)nc2c1 -5.88%
CCOCCCNC(=O)c1c(NC(=O)c2cc(=O)c3cc(C)c(C)cc3o2)sc2c1CCC2 -20.3%
CCn1c(=O)cc(OCC(=O)NCc2ccc(F)cc2Cl)c2ccccc21 -0.449%
COc1ccc(CN2C(=O)N(c3ccc(F)cc3)C(=O)C2CC(=O)Nc2ccccc2)cc1 (stereo unspecified) 0.431%
CCOc1ccc(N2CC(c3nc4ccccc4n3CCC3CCCCC3)CC2=O)cc1 (stereo unspecified) 8.03%
CCCNC(=O)C1CCN(c2cc(C)nc3c(-c4ccc(OC)c(OC)c4)c(C)nn23)CC1 -0.873%
Cc1ccc(CCNc2nc3ccccc3c3nc(-c4ccccc4)nn23)cc1 -1.95%
Cc1oc(-c2ccc(Cl)cc2)nc1CSc1nnc(C)n2c1cc1sccc12 -6.44%
O=C(NCCc1c[nH]c2ccccc12)Nc1ccccc1C(F)(F)F -4.71%
COC(=O)c1cc(NC(=O)Cn2ncc3c2-c2ccccc2OC3)cc(C(=O)OC)c1 -8.09%
COc1ccc(-c2noc(-c3ccc(NC4CCCCC4)c([N+](=O)[O-])c3)n2)cc1OC 0.387%
Cc1cccc(CS(=O)(=O)CC2Nc3ccc(C(=O)NCc4ccccc4Cl)cc3NC2=O)c1 (stereo unspecified) 0.472%
Cc1ccc(-n2c(=O)c3c(C)c(C)sc3n(CC(=O)c3ccc(Cl)cc3)c2=O)cc1C -0.946%
CCCn1c2ccccc2c2cnn(CC(=O)N(CCCOC(C)C)Cc3ccco3)c(=O)c21 -0.025%
COc1cc(Nc2ncnc3onc(-c4ccc(Cl)cc4)c23)cc(OC)c1 -9.15%
COc1cc(C(=O)Nc2ccc(OCc3cc(=O)n4ccc(C)cc4n3)cc2)cc(OC)c1OC -6.3%
N#Cc1ccccc1CSc1nnc(-c2ccccc2)o1 1.05%
Cc1ccn2c(Nc3ccc4c(c3)OCO4)c(-c3ccco3)nc2c1 3.79%
O=C(Cn1c(=O)n(Cc2ccc(F)cc2)c(=O)c2sc3ccccc3c21)NCc1ccccc1Cl 0.459%
COc1ccc(N2CCN(C(CNS(=O)(=O)c3c(C)cc(C)cc3C)c3ccco3)CC2)cc1 (stereo unspecified) -5.6%
Cc1cccc(N2CCN(S(=O)(=O)c3c(C)[nH]c(=O)[nH]c3=O)CC2)c1C -2.36%
COc1ccc(OC)c(NC(=O)CSC2=Nc3ccccc3C3=NC(CCC(=O)NCc4ccco4)C(=O)N23)c1 (stereo unspecified) -7.48%
O=S1(=O)c2ccccc2N(Cc2ccc(Cl)cc2F)c2ccccc21 1.99%
CN(C)S(=O)(=O)c1ccc2c(c1)c(=O)c(C(=O)N1CCN(c3cccc(Cl)c3)CC1)cn2C -2.53%
CCOC(=O)c1ccc(NC(=O)CN(c2ccc(C)cc2)S(=O)(=O)c2ccc(OC)cc2)cc1 -9.92%
CCC(=O)Nc1nnc(S(=O)(=O)N(C)Cc2ccc(Cl)cc2)s1 0.257%
CCOc1ccccc1NC(=O)CSC1=Nc2ccccc2C2=NC(CC(=O)NC3CCCCC3)C(=O)N12 (stereo unspecified) -15.8%
COc1ccc(N2CCN(CCCNC(=O)Nc3ccccc3Cl)CC2)cc1 -8.76%
COc1ccc(CCNC(=O)CN(c2ccc(C)cc2)S(=O)(=O)c2ccc(OC)cc2)cc1 -0.853%
CCOc1ccc(-c2nc3c(c(SCC(=O)N4CCCCC4)n2)Cc2cc(C)ccc2O3)cc1 0.93%
CCOc1ccc(CN2C(=O)c3ccccc3Sc3ccc(C(=O)N4CCN(C)CC4)cc32)cc1 0.425%
CCC(Sc1nc2cc(OC)c(OC)cc2c(=O)n1Cc1ccc(Cl)cc1)C(=O)NCCOC (stereo unspecified) 0.537%
Cc1cc(NC(=O)c2cccnc2)cc(-c2nc3cc(Cl)ccc3o2)c1O 0.084%
Brc1ccc(-c2ccc(CNCCSc3nnnn3-c3ccccc3)o2)cc1 -5.31%
O=C(NC1CC(=O)N(c2ccccc2)C1)c1ccc(S(=O)(=O)N2CCOCC2)cc1 (stereo unspecified) -2.83%
COc1ccc(OC)c(NC(=O)CSc2n[nH]c(-c3ccccc3Cl)n2)c1 7.98%
c1ccc(-c2cn(-c3ccccc3)c3ncnc(N4CCN(c5ccccc5)CC4)c23)cc1 4.12%
CCOC(=O)CC(NC(=O)c1cc2cc(Cl)ccc2oc1=O)c1ccc(C)cc1 (stereo unspecified) 18.1%
Cc1cc(C)cc(Oc2c(C(F)(F)F)oc3c(CN4CCCC(C)C4)c(O)ccc3c2=O)c1 (stereo unspecified) 5.5%
COc1ccccc1N1CCN(c2ccc3cc(S(=O)(=O)N4CCCCC4)ccc3n2)CC1 3.5%
CCOc1ccc(-n2nc(CO)c(C(=O)NCc3ccc(Cl)cc3)n2)cc1 -0.67%
COc1ccc(Br)c2c1-c1nc(NC(=O)c3cccc(C)c3)sc1C2 -3.26%
CC1CCN(C(=O)CSc2c3c(nc4cc(Cl)ccc24)CCCC3)CC1 -9.76%
Cc1ccc(-c2nnc(SCCOc3ccccc3)o2)cc1 -10.1%
CCOc1ccc(-c2cn(-c3ccc(OC)cc3)c(SCC(=O)Nc3ccccc3Cl)n2)cc1 0.183%
COc1ccc(F)cc1S(=O)(=O)NCCc1csc(-c2ccc(Cl)cc2)n1 -8.12%
CCc1ccc(NC(=O)C2CCN(c3nnc(-n4c(C)ccc4C)s3)CC2)cc1 -0.103%
CCC(=O)Nc1sc2c(c1C(=O)Nc1ccc(OC)cc1)CCC(C(C)(C)C)C2 (stereo unspecified) 3.85%
